Results from the RNAGym collection of RNA variant scans (doi:10.1093/nar/gkz1192).
The source gives no read counts; variants with many changes may rest on few reads.

B1: CPEB3 Ribozyme (parent)
chain: UAACAGGGGGCCACAGCAGAAGCGUUCACGUCGCAGCCCCUGUCAGAUUCUGGUGAAUCUGCGAAUUCUGCUGUAUAUCUC

Variants of: B1
Assay: self-cleavage, relative activity (ratio to wild type); higher = more cleavage; in vitro, sequencing
In short: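 Barcoded CPEB3 ribozyme mutants, produced by rounds of error-prone PCR, self-cleaved while being transcribed with T7 RNA polymerase for 5 hours at 37°C and during a subsequent 15 min DNase I step before EDTA was added. Sequencing of template-switched cDNA on Illumina gave cleaved and total reads, and DNA sequencing assigned barcodes to variants. Each variant's relative activity is its cleaved/total read fraction divided by the unmutated ribozyme's fraction, averaged across three batches. A variant needed a minimum of 5 reads.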
Work on UAACAGGGGGCCUAAGCGGAAGCGUUCACGUCGCAGCCCCUGUCAGAUUCUGGUGAAUCUGCGUAUUCUGCUGUAUGUCUC yielded a self-cleavage of 0.12. Variant UAACAGGGGGCCUCAGCAGAAGCGUUCACGUCGCAGCCCCUGUCAGAUUCUGGUGAAUCUGAGAAUUCUGCAGUAUAUCUC has a self-cleavage of 0.33. With UAACAGGGGGCCUCAGCAGAAGCACUCACGCCGCAGCCCCAGUCAGAUUCUGGUGAAUCGGCGAAUUCUGCUGUAUAUCUC the self-cleavage was 0.05. For UAACAGGGGGCCUCAGCAGAAGCGUUCAUGUCGCAGCCCCUGUCAGAUUCUGGUGAAUCUGCGAUUUCUGCUGUAUAUCUC, the self-cleavage was 0.11. Variant UAACAGGGGGCCUCAGCAGAAGCGUUCAAGUCGCAGCCCCAGUCAGAUUCUGGUGGAUCUGCGAAUUCUGCAGUAUAUCUC has a self-cleavage of 0.06. In the case of UAACAGGGGGCCUCAGCAGAAGCGUUCACGUCGCAGCCCUUGUCAGAAUCUGGUGAAUCUGUGAAUUCUGCUGUGUAUCUC, the self-cleavage is reported as 0.14. UAACAGGGGGCCUCAGCAGAAGCGUUUACGUCGCAGCCCCUGUCAGAUUCUGGUGGAUCUGCGAAUUCUGCUGUAUAUCUC showed a self-cleavage of 0.26. Variant UAACAGGGGGCCUCAGCAUAAGCGCUCACGUCGCAGCCCCUGUCAGAUUCUGGUGAAUCUGCGGAUUCUGCUGUAUAUCUC has a self-cleavage of 0.17. For UAACAGGGGGCCUCAGCAGAAGCGUUCAGGUCGCAGCCCCUGUCGGAUCCUGGUGAAUCUGCGAACUCUGCUGUAUAUCUC, the self-cleavage was 0.06. In the case of UAACAGGGGGCCUCAGGAGAAGCGCUCACGUCGCAGCCCCUGUCAGAUACUGGUGAGUCUGCGAAUUCUGCUGUAUACCUC, the self-cleavage is reported as 0.14. Work on UAACAGGGGGCCUCAGCAGAAGUGUUCACGUCGCAGCCCCUAUCAGAUUCUGGUGAAUCUGCAAUUUCUGCUGUAUAUCUC yielded a self-cleavage of 0.04. For UAACAGGGGGCCUCAGUAGAAGCGUCCACGUCGCAGCCCCUGUCAGAUUCAGGUGAAUCUGAGAAUUCUGCUGUAUAUCUC, the self-cleavage was 0.11. UAACAGGGGGCCUCAGCAGAAGCGUUCACGUCGCAGCCCCUGUCAGAUUCUGGUGAGUCUGCGGACUCUGCUGUAUUUCUC gave a self-cleavage of 0.22. With UAACAGGGGGCCUCAGCACAAGCGUUCACGUCGCAGCCCCCGUCAGAUUCUGGUGGAUCUGCGAAUUCCGCAGUAUAUCUC the self-cleavage was 0.15. In the case of UAACAGGGGGCCUCAGCAGAAGCGUUCACGUCGCAGCCCCUGUCAGAUUCUGGUGAAUCUGUGAAUUCUGCUGUAUAUCCC, the self-cleavage is reported as 0.26. For UAACAGGGGGCCUCAGCAGAAGCGUUCACGUCGCAGCCCUUGUCAGAUUCUGGUGAAUCUGCGGUUUCUGCUGCAUAUCUC, the self-cleavage was 0.12. UAACAGGGGGCCUAAGCAGAAGCGUUCACGUCGCGGCCCUUGCCAGAUUCUGGUGAAUCUGCGAAUUCAGCUGUACAUCUC showed a self-cleavage of 0.12. Work on UAACAGGGGGCCUCAGCAGAAGCGUUCACGUCGCAGCCCCUGUCAGAUUCUGGUGAAUCUGCGAGUUCUGCAGUAUAUCUC yielded a self-cleavage of 0.33. Work on UAACAGGGGGCCUCAGUAGAAGCGUUCACGUCGCAGCCCCUGUCAGAUUCCGGUGAGUCUGCGAAUUCUGCUGUAUAUCUC yielded a self-cleavage of 0.44. For UAACAGGGGGCCUCAGAAGAAGCGUUCACGUCGCAGCCCCUGUCAGGUUCUGGUGAAUCUGCGAAUUCUGCUGUAUAUCUC, the self-cleavage was 0.51. With UAACAGGGGGCCUUAGCAGAAGCGUUCACGUCGCAGCCCCUGUCAGAUUCUGGUGAAACUGCGGAUUCUGCUGUACAUCUC the self-cleavage was 0.2. For UAACAGGGGGCCUCAGCAAAAGCGUUCACGCCGCAGCCCCUGUCAGAUUCUUGUGAAUCCGCGAAUUCUGCUGUAUAUCUC, the self-cleavage was 0.05. In the case of UAACAGGGGGCCUCAGCAGAAGGGUUCACGUCGCAGCCCCUGUCAGAUUCUGGUGAAUCUGCGAAUUCUGCUGAAUAUCUC, the self-cleavage is reported as 0.2. With UAACAGGGGGCCUCAGCAGAAGCGUUCACGUCGCAGCCCUUGUCAGAUUCUGGUGAGUCUGCGAAUUCUGCUGUAUAUCUC the self-cleavage was 0.45. Work on UAACAGGGGGCCUCAGCAGAAGCGUUAACGUCGCAGCCCCUGUCAGAUUCUGGUGAAUACGCGAAUUCUGCCGUAUAUCUC yielded a self-cleavage of 0.06. In the case of UAACAGGGGGCCUCAGCAGAAGCGUUCACGUCGAAGCCCCUGUCUGAUUCUGGUGAAUCUGCGAAUUCUGCUGUAUAUCUC, the self-cleavage is reported as 0.17. UAACAGGGGGCCUCAGCAGAAGGGUUCACGUCGCAGCCCCUGUCAGAUCCUGGUGAACCUGCGAAUUCUGCUGUAUAUCUC showed a self-cleavage of 0.05. For UAACAGGGGGCCUCAGCAGAAGCGUUCACGUCGCAGCCCCUGUCAGAUUCUGGUGAAUCUGCGAAUUCUGCUGUAUAUUCC, the self-cleavage was 1.46. For UAACAGGGGGCCUUAGCAGAAGCGUUCACGACGCAGCCCCUGUCAGAUUCUGGUGAAUCUGCGAAUUCUGCUGUAUAUCUC, the self-cleavage was 0.42. In the case of UAACAGGGGGCCUUAGCAGAAGCGUUCACGUCGCAGCCCAUGUCAGAUUCUGGUGAAUCUGCGAAUUCUGCUGUAUAUCUC, the self-cleavage is reported as 0.08. With UAACAGGGGGCCUCAGGAGAAGCGUUGACGUCGCAGCCCCUGUCAGAUUCUGGUGAAUCUGCGAAUUCCGCUGUAUAUCUC the self-cleavage was 0.08. Variant UAACAGGGGGCCUCAGCAGAAGCGUUCACGUCGCAGUCCCUGCCAGAUGCUGGUGGAUCUGCGAAUUCUGCUGUAUAUCUC has a self-cleavage of 0.06. With UAACAGGGGGCCUCAGCAAAAGCGUUCACGUCGCAGCCCCUGUCAGAUUCUUGUGAAUCUGCGGAUUCUGCUGUAUAUCUC the self-cleavage was 0.16. Variant UAACAGGGGGCCUCAGCAGAAGCGUUCACGUUGCAGCCCCUGUCAGAUUCUGGUGAAUCUGCGUAUUUUGCUGUAUAUCUC has a self-cleavage of 0.04. Variant UAACAGGGGGCCUCAGCAGAAGUGUUCACGUCGCGGCCCCUGUCAGAUUCUGGUGAAUCUGCGAAUUCUGCUGUAUAUCUC has a self-cleavage of 1.22. In the case of UAACAGGGGGCCUUAGCAGAAGCGUUCACGUCGCAGCCCCUGUCAGAUUCUGGUGAAUCUGUGAAUUCUGCUGUAUAUCUC, the self-cleavage is reported as 0.11. For UAACAGGGGGCCUCAGCAGAAACGUUCACGUCGCAGCCCCGGUCAGAUUCCGGUGAAUCUGCGAAUUCUGAUGUAUAUCUC, the self-cleavage was 0.05. With UAACAGGGGGCCUCAGCAGAAGCGUUCACGUCGCAGCCCCUGUCAGAUUCUGGUGAGUCUGCGAAUUCUGCUGUACAUCUC the self-cleavage was 1.08. Variant UAACAGGGGGCCUCAGCAGAAGCGUUCAUGUCGCAGCCCCUGUCAGAUUCUGGGGAAUCUGCGAAUUCUGCUGUAUAUCUC has a self-cleavage of 0.2. For UAACAGGGGGCCUCAGCAUAAGCGUUCACGUCGCAGCCCCUGUCAGAUUCUGGUGAAUCUUCGAAUUCUGCUGUAUAUCUC, the self-cleavage was 0.08. UAACAGGGGGCCUCAGCAGAAGCGUUCACGUCGGAGCCCCCGUCAGAUUCUGGAGAACCUGCGAAUUCUGCCGUAUAUCCC gave a self-cleavage of 0.05. UAACAGGGGGCCUCAGCAGAAGCGUUCAUGUCGCAGCCCCUGACAGAUACUGGUGAACCUGCGAAUUCUGCUGAAUACCUC showed a self-cleavage of 0.21. With UAACAGGGGGCCUCAGCAGAAGCGUUCACGUCGCAGCCCCUGUCAGAUUCUGGUGAAUCUGCGAAUUCUGCUGUUUAUGUC the self-cleavage was 1.3. Work on UAACAGGGGGCCUCAGCAGAAGCGUUCACGUCGCAGCCCCUGUCAGAUUCUGGUGGAUCAGCGAAUUCUGCUGUAUAUCUC yielded a self-cleavage of 0.6. Work on UAACAGGGGGCCUCAGCAGAAGCGUUCACGUCGCAGCCCCUGUCAGAUUCUGGUGAAUCUGCGUAUUCUGCUGUUUAUCUC yielded a self-cleavage of 0.5. For UAACAGGGGGCCUCAGCAGAAGCGUUCACGUCGCAGCCCCUGUCAGAUUCUGGUGAGUCUGCGUAUUCUGCUGUAUACCUC, the self-cleavage was 0.26. In the case of UAACAGGGGGCCUAAGCAGAAGCGUUCACGUCGCAGCCCCUGUCGGAUUCCGGUGAAUCUGCGAAUUCUGCUGUAUAUCUC, the self-cleavage is reported as 0.64. UAACAGGGGGCCUAAGCAGAAGCGUUCACGUCGCGGCCCCUGCCAGAUUCUGGUGAAUCUGCGAAUACUGCUGUAUAUCUC showed a self-cleavage of 0.41. UAACAGGGGGCCUCAGCACAAGCGUUCACGUCGCAGCCCCUGCCAGAUCCUGGUGUAUCUACGUAUUCUGCUGUAUAUCUC gave a self-cleavage of 0.04. In the case of UAACAGGGGGCCUCAGCAGAAGCGUUCAAGUCGCAGCCCCUGUCAGAUUCUGGUGAAUCUGCGAACUCUGCGGUAUAUCUC, the self-cleavage is reported as 0.06. Variant UAACAGGGGGCCUCAGCAUAAGCGUCCACGUCGCAGCGCCGGUCAGAUCCUGGUGAAUCUGGGAAUUCUGCUGUAUAUCUC has a self-cleavage of 0.03. With UAACAGGGGGCCUCAGCAGAAGCGUUCACGUCGCAGCCCCUGUCAGAUUCUGGUGACUCAACGAAUUCUGCCGUAUAUCUC the self-cleavage was 0.09. Variant UAACAGGGGGCCUCAGCAGAACCGUUCACGUCGCAGCCCCUGUUAGAUUCUGGUGAAUCAGCGAAUUCUGCUGUACACCUC has a self-cleavage of 0.12. UAACAGGGGGCCUCAGCAGAAGCGUUCACGUCGCAGCCCCUGUCAGAUUCUGGUGGAUCUGCGAAUUCCGCUGUAUAUCUC showed a self-cleavage of 0.64. Work on UAACAGGGGGCCUCAGCAGAAGCGUUCACGUCGCAGCCCCUGUCAGAUUCUGGUGGAUCUGCGAAUUCUGCGGUAUAUCUC yielded a self-cleavage of 0.89. UAACAGGGGGCCUCAGCAGAAGCGUUCACGUCGCAGGCCCUGUCAGAUUCUGGUGAACCUGCGAAUUCUGCUGUAUACCUC gave a self-cleavage of 0.21. With UAACAGGGGGCCUCAGCAGAAGCGUUCACGUCGCAGCCCCUGUCAGAUUCUGGUGAAUCUGCGGAUUCUGCUGUAUAUCAC the self-cleavage was 0.96. For UAACAGGGGGCCUCAGGAGAAGCGUCCACGUCGCAGCCCCUGUCUGAUACUGGUGUAUCUGCGAAUUCUGCUGUAUAUCUC, the self-cleavage was 0.04. With UAACAGGGGGCCUCAGCAGAAGGGUUCACGACGCAGCCCCUGCCAGAUUCUGGUGAAUCUGCGAAUUCUGCUGUAUAUCUC the self-cleavage was 0.06. UAACAGGGGGCCUCAGCAGAAGCGUUCACGUCGCAGCCCCUGUCAGAUUCUGGUGAAUCUGCGGAUUCUACUGUAUACCUC gave a self-cleavage of 0.27. UAACAGGGGGCCUCAGCAGAAGCGUUCACGUCGCAGCCCCUGUCAGAUUCUGGUGGUUCUGCGGAUUCCGCUGUAUAUCUC gave a self-cleavage of 0.1. UAACAGGGGGCCUCAGCAGAAUCGUUCACGUCGCAGCCCCUGUCAGAUUCUGGUGAAUCUGCGAAUUCUGCUGUAUAACUC showed a self-cleavage of 0.17. Work on UAACAGGGGGCCUCAGCAGAAGCGUUCACGUCGCAGCCCUUGUCAGAUUCAGGUGAAUCUGCGAAUUCUGCUGUACAUCUC yielded a self-cleavage of 0.88. With UAACAGGGGGCCUCAGCAGAAGUGUUCACGUCGCAGCCCCUGUCAGAUCCUGGUGAAUCUGCGAAUUCUGCUGUAUAUCUC the self-cleavage was 0.07. UAACAGGGGGCCUCAGCAGAAGCGUUCACGUUGCAGCCCCUGUCAGAUUCUGGUAAAUCUGCGAAUUCUGCUGUAUAUCUC gave a self-cleavage of 0.16. Work on UAACAGGGGGCCUCAGCAGAAGCGUUCACGUCGCAGCCCCUGUCAGAUUCUGGUGGAUCUGCGAAUUCUGCUGUAUACCUC yielded a self-cleavage of 0.97. In the case of UAACAGGGGGCCUCAGCAGAAGCGUUCAUGACGCAGCCCCUGUCAGAUUCUGGUGAAUCUGCGAAUUCUGCUGUAUAUCUC, the self-cleavage is reported as 0.17. UAACAGGGGGCCUCAGCAAAAGCGUUCACGUCGCAGCCCCUGUCAGAUUCUUGUGAAUCUGCGAAUUCUGCAGUAAAUCUC gave a self-cleavage of 0.06.
